Experimental data as given in patent publication US20190016784A1 (CSL BEHRING LENGNAU, published 2019).

T1: CSL627 (recombinant Factor VIII, rVIII-SingleChain) (human, UniProt P00451 20-2351)
T1 construct: the tie is indirect; also called FVIII; CSL627-rVIII-SingleChain
T1 sequence: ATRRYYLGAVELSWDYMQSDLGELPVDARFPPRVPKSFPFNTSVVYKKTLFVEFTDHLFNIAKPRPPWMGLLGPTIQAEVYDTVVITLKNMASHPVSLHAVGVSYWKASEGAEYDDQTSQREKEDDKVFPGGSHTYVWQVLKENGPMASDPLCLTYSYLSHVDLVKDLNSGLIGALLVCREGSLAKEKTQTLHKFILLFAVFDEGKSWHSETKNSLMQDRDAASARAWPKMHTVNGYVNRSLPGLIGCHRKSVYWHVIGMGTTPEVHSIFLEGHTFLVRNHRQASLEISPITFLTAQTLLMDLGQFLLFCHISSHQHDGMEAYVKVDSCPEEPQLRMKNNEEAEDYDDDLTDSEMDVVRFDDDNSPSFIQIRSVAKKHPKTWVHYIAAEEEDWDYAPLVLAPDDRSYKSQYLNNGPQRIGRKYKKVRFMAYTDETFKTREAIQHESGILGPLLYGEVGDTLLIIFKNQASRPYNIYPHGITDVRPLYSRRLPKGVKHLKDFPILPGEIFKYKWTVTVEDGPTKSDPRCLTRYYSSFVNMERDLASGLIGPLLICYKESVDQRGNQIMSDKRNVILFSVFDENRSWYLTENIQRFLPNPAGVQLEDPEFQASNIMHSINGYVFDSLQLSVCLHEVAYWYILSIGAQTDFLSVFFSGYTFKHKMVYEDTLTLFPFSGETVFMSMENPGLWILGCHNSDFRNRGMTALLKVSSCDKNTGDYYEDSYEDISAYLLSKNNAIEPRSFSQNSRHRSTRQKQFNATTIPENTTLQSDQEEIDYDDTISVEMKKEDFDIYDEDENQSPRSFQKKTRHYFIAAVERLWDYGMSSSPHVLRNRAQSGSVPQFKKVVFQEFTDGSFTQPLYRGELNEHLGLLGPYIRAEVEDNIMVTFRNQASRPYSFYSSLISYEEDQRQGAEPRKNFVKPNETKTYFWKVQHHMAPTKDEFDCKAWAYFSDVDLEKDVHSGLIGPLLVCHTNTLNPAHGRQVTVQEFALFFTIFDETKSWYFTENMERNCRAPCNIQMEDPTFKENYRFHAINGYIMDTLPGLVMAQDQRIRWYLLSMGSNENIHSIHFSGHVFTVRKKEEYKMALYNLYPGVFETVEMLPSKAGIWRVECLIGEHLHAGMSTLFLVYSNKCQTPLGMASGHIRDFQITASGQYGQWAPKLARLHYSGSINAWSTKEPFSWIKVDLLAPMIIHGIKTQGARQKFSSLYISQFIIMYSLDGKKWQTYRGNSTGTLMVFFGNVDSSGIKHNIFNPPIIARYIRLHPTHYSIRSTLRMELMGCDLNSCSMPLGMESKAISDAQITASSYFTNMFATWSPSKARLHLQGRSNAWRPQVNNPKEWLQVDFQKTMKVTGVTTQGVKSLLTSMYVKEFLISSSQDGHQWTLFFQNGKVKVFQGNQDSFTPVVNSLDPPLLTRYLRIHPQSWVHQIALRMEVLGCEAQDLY

B1: vWF D′D3-HSA dimer K912E, T1088S (other)
chain: SLSCRPPMVKLVCPADNLRAEGLECTKTCQNYDLECMSMGCVSGCLCPPGMVRHENRCVALERCPCFHQGKEYAPGETVKIGCNTCVCRDRKWNCTDHVCDATCSTIGMAHYLTFDGLKYLFPGECQYVLVQDYCGSNPGTFRILVGNEGCSHPSVKCKKRVTILVEGGEIELFDGEVNVKRPMKDETHFEVVESGRYIILLLGKALSVVWDRHLSISVVLKQTYQEKVCGLCGNFDGIQNNDLTSSNLQVEEDPVDFGNSWKVSSQCADTRKVPLDSSPATCHNNIMKQTMVDSSCRILTSDVFQDCNKLVDPEPYLDVCIYDSCSCESIGDCACFCDTIAAYAHVCAQHGKVVTWRTATLCPQSCEERNLRENGYECEWRYNSCAPACQVTCQHPEPLACPVQCVEGCHAHCPPGKILDELLQTCVDPEDCPVCEVAGRRFASGKKVTLNPSDPEHCQICHCDVVNLTCEACQEPGG[omitted - about 600 residues]
notes: Albumin fusion, dimer; tested from culture supernatant; not shown: glycine serine linker between VWF part and albumin
B2: vWF D′D3-HSA dimer N1011S, V1083A, K1181E (other)
chain: SLSCRPPMVKLVCPADNLRAEGLECTKTCQNYDLECMSMGCVSGCLCPPGMVRHENRCVALERCPCFHQGKEYAPGETVKIGCNTCVCRDRKWNCTDHVCDATCSTIGMAHYLTFDGLKYLFPGECQYVLVQDYCGSNPGTFRILVGNKGCSHPSVKCKKRVTILVEGGEIELFDGEVNVKRPMKDETHFEVVESGRYIILLLGKALSVVWDRHLSISVVLKQTYQEKVCGLCGNFDGIQNNDLTSSSLQVEEDPVDFGNSWKVSSQCADTRKVPLDSSPATCHNNIMKQTMVDSSCRILTSDVFQDCNKLVDPEPYLDACIYDTCSCESIGDCACFCDTIAAYAHVCAQHGKVVTWRTATLCPQSCEERNLRENGYECEWRYNSCAPACQVTCQHPEPLACPVQCVEGCHAHCPPGEILDELLQTCVDPEDCPVCEVAGRRFASGKKVTLNPSDPEHCQICHCDVVNLTCEACQEPGG[omitted - about 600 residues]
notes: as for B1
B3: vWF D′D3-HSA dimer S764E, S766Y, V1083A (other)
chain: ELYCRPPMVKLVCPADNLRAEGLECTKTCQNYDLECMSMGCVSGCLCPPGMVRHENRCVALERCPCFHQGKEYAPGETVKIGCNTCVCRDRKWNCTDHVCDATCSTIGMAHYLTFDGLKYLFPGECQYVLVQDYCGSNPGTFRILVGNKGCSHPSVKCKKRVTILVEGGEIELFDGEVNVKRPMKDETHFEVVESGRYIILLLGKALSVVWDRHLSISVVLKQTYQEKVCGLCGNFDGIQNNDLTSSNLQVEEDPVDFGNSWKVSSQCADTRKVPLDSSPATCHNNIMKQTMVDSSCRILTSDVFQDCNKLVDPEPYLDACIYDTCSCESIGDCACFCDTIAAYAHVCAQHGKVVTWRTATLCPQSCEERNLRENGYECEWRYNSCAPACQVTCQHPEPLACPVQCVEGCHAHCPPGKILDELLQTCVDPEDCPVCEVAGRRFASGKKVTLNPSDPEHCQICHCDVVNLTCEACQEPGG[omitted - about 600 residues]
notes: also called EYA; EYA Dimer; not shown: glycine serine linker between VWF part and albumin

Assays:
[1] = target: T1, CSL627 (recombinant Factor VIII, …); test: SPR screen at pH 7; D′D3-HSA from culture supernatant captured on anti-HSA antibody, Factor VIII injected
Description: (§1) Mouse anti-HSA antibody was immobilized on a CMS chip using standard NHS/EDC coupling chemistry. Typically, the immobilization level was about 14,000 RU. Each mutant of vWF-HSA was captured on a single spot in each flow cell for 2 minutes at various concentrations ranging from 0.1-1 μg/ml. Capture levels ranged from 100-200 RU. An adjacent spot in which anti-HSA was immobilized, but no vWF-HSA captured was used as a reference. Capture was performed every cycle, before FVIII binding analysis.
An initial experiment was set up at neutral pH to screen a series of mutations for the top affinity and off rate improved vWF-HSA mutants. […]
Throughout all experiments buffer blanks were also injected over all captured proteins. The association and dissociation of Factor VIII was monitored for 3 minutes respectively during the “screening” experiment. The association of CSL627 was monitored for 5 minutes and dissociation was monitored for 20 and 60 minutes during the “detailed kinetic analysis” experiments at neutral pH. At pH 5.5 the association and dissociation of Factor VIII was monitored for various time frames that best suited the interaction.

[2] = target: T1, CSL627 (recombinant Factor VIII, …); test: SPR at acidic pH (5.5), summary in the conclusion
[3] = target: T1, CSL627 (recombinant Factor VIII, …); test: SPR at neutral pH, summary in the conclusion
[4] = target: T1, CSL627 (recombinant Factor VIII, …); test: SPR detailed kinetics at pH 5.5, 37 C; purified dimer from the single D1D2D′D3-HSA construct captured on anti-HSA antibody, CSL627 injected; 1:1 fit with mass transport
Description: as §1, with “Each Dimer” for “Each”, “D′D3-HSA” for “vWF-HSA”, “0.2-0.7” for “0.1-1”, “50-250” for “100-200”, “FVIII (CSL627)” for “FVIII”
(§2) CSL627 was injected at random and in duplicate over all spots in all flow cells. […] The association was monitored for 5 minutes, while the dissociation was monitored for 20 minutes as well as for 1 hour at the 1 nM concentration. Buffer blanks were also injected. At pH5.5 CSL627 was injected at various concentrations and time frames that best suited the interaction taking place.
(§3) After the dissociation period the surface was regenerated with a 45 second injection of 25 mM Glycine pH2.6. Running buffer throughout was 10 mM HEPES, 150 mM NaCl, 10 mM Na Citrate, 2.5 mM CaCl2, 0.1% BSA, pH7.3 and pH5.5, while the flow rate was 30 μl/min. Each interaction was measured 4 times (n=4) at 37° C.

[5] = target: T1, CSL627 (recombinant Factor VIII, …); test: SPR detailed kinetics at pH 7, 37 C; purified dimer from the single D1D2D′D3-HSA construct captured on anti-HSA antibody, CSL627 injected; 1:1 fit with mass transport
Description: as §1, with “Each Dimer” for “Each”, “D′D3-HSA” for “vWF-HSA”, “0.2-0.7” for “0.1-1”, “50-250” for “100-200”, “FVIII (CSL627)” for “FVIII”
as §2, §3

Row | Binder | Kd [1] [nM] | koff [1] [s⁻¹] | kon [1] [M⁻¹ s⁻¹] | fold improvement in affinity compared to the wild-type dimer [2] [fold] | fold improvement in off rate compared to the wild-type dimer [2] [fold] | fold improvement in affinity compared to the wild-type dimer [3] [fold] | fold improvement in off rate compared to the wild-type dimer [3] [fold] | Kd [4] [nM] | koff [4] [s⁻¹] | kon [4] [M⁻¹ s⁻¹] | Kd [5] [nM] | koff [5] [s⁻¹] | kon [5] [M⁻¹ s⁻¹]
1 | B1 | 0.155 | 0.0008 | 5.17e+06 |  |  |  |  |  |  |  |  |  | 
2 | B2 | 0.081 | 0.00043 | 5.31e+06 |  |  |  |  |  |  |  |  |  | 
3 | B3 |  |  |  | ~100 | ≥ 10 | ~20 | ~40 | 0.535 | 0.00189 | 3.61e+06 | 0.00565 | 4.77e-05 | 8.59e+06
